# The supplement of paper PMC8728848
# This is one part of the list.
# B1: rCNL (Clitocybe nebularis), B2ZRS9 (protein)
# chain: SITPGTYNITNVAYTNRLIDLTGSNPAENTLIIGHHLNKTPSGYGNQQWTLVQLPHTTIYTMQAVNPQSYVRVRDDNLVDGAALVGSQQPTPVSIESAGNSGQFRIKIPNLGLALTLPSDANSTPIVLGEVDETSTNQLWAFESVSAV
# What was measured:
# Test in all cases: glycan array binding signal (z-score within array); higher = stronger binding
# Conditions in all cases: glycan notation: IUPAC condensed, linker removed
# [1] = target: GlcNAc(b1-3)Gal(b1-4)GlcNAc(b1-3)Gal(b1-4)GlcNAc(b1-3)GalNAc
# In short: (§1)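 The Consortium for Functional Glycomics database supplied 3228 glycan arrays, of which those lacking an available protein sequence were dropped. The binding signal, a within-array Z-score, was averaged across arrays of the same protein sequence and across linkers. Negative scores can be read as non-binding.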
# [2] = target: GlcNAc(b1-3)Gal(b1-4)GlcNAc(b1-3)GalNAc
# In short: as §1
# [3] = target: GlcNAc(b1-3)Gal(b1-4)GlcNAc(b1-3)[GlcNAc(b1-3)Gal(b1-4)GlcNAc(b1-3)]GalNAc
# In short: as §1
# [4] = target: GlcNAc(b1-3)Gal(b1-4)GlcNAc(b1-6)[Gal(b1-3)]GalNAc
# In short: as §1
# [5] = target: GlcNAc(b1-3)Gal(b1-4)GlcNAc(b1-6)[GlcNAc(b1-3)Gal(b1-3)]GalNAc
# In short: as §1
# [6] = target: GlcNAc(b1-3)Gal(b1-4)GlcNAc(b1-6)[GlcNAc(b1-3)]Gal(b1-4)GlcNAc
# In short: as §1
# GlcNAc(b1-3)GalNAc = target: GlcNAc(b1-3)GalNAc
# In short: as §1
# GlcNAc(b1-3)Man = target: GlcNAc(b1-3)Man
# In short: as §1
# [7] = target: GlcNAc(b1-3)[GlcNAc(b1-4)][GlcNAc(b1-6)]GlcNAc
# In short: as §1
# [8] = target: GlcNAc(b1-3)[GlcNAc(b1-6)]Gal(b1-4)GlcNAc
# In short: as §1
# [9] = target: GlcNAc(b1-3)[GlcNAc(b1-6)]GalNAc
# In short: as §1
# [10] = target: GlcNAc(b1-4)Gal(b1-4)GlcNAc
# In short: as §1
# GlcNAc(b1-4)GlcNAc = target: GlcNAc(b1-4)GlcNAc
# In short: as §1
# [11] = target: GlcNAc(b1-4)GlcNAc(b1-4)GlcNAc
# In short: as §1
# [12] = target: GlcNAc(b1-4)GlcNAc(b1-4)GlcNAc(b1-4)GlcNAc(b1-4)GlcNAc
# In short: as §1
# [13] = target: GlcNAc(b1-4)GlcNAc(b1-4)GlcNAc(b1-4)GlcNAc(b1-4)GlcNAc(b1-4)GlcNAc
# In short: as §1
# [14] = target: GlcNAc(b1-4)[GlcNAc(b1-6)]GalNAc
# In short: as §1
# [15] = target: GlcNAc(b1-6)Gal(b1-4)GlcNAc
# In short: as §1
# GlcNAc(b1-6)GalNAc = target: GlcNAc(b1-6)GalNAc
# In short: as §1
# GlcNAc3Prop(b1-4)GlcNAc = target: GlcNAc3Prop(b1-4)GlcNAc
# In short: as §1
# [16] = target: GlcNAc6S(b1-3)Gal(b1-4)GlcNAc
# In short: as §1
# Kdn(a2-3)Gal(b1-3)GalNAc = target: Kdn(a2-3)Gal(b1-3)GalNAc
# In short: as §1
# Kdn(a2-3)Gal(b1-3)GlcNAc = target: Kdn(a2-3)Gal(b1-3)GlcNAc
# In short: as §1
# Kdn(a2-3)Gal(b1-4)Glc = target: Kdn(a2-3)Gal(b1-4)Glc
# In short: as §1
# Kdn(a2-3)Gal(b1-4)GlcNAc = target: Kdn(a2-3)Gal(b1-4)GlcNAc
# In short: as §1
# [17] = target: Kdn(a2-3)Gal(b1-4)[Fuc(a1-3)]GlcNAc
# In short: as §1
# Kdn(a2-6)Gal(b1-4)GlcNAc = target: Kdn(a2-6)Gal(b1-4)GlcNAc
# In short: as §1
# [18] = target: Man(a1-2)Man(a1-2)Man(a1-3)Man
# In short: as §1
# [19] = target: Man(a1-2)Man(a1-2)Man(a1-6)[Man(a1-3)]Man
# In short: as §1
# Man(a1-2)Man(a1-3)Man = target: Man(a1-2)Man(a1-3)Man
# In short: as §1
# [20] = target: Man(a1-2)Man(a1-3)[Man(a1-2)Man(a1-6)]Man
# In short: as §1
# [21] = target: Man(a1-2)Man(a1-3)[Man(a1-2)Man(a1-6)]Man(a1-6)[Man(a1-2)Man(a1-2)Man(a1-3)]Man
# In short: as §1
# [22] = target: Man(a1-2)Man(a1-3)[Man(a1-2)Man(a1-6)]Man(a1-6)[Man(a1-2)Man(a1-2)Man(a1-3)]Man(b1-4)GlcNAc(b1-4)GlcNAc
# In short: as §1
# [23] = target: Man(a1-2)Man(a1-3)[Man(a1-6)]Man(a1-6)[Man(a1-2)Man(a1-3)]Man(b1-4)GlcNAc(b1-4)GlcNAc
# In short: as §1
# [24] = target: Man(a1-2)Man(a1-6)[Man(a1-3)]Man(a1-6)[Man(a1-2)Man(a1-2)Man(a1-3)]Man
# In short: as §1
# [25] = target: Man(a1-2)Man(a1-6)[Man(a1-3)]Man(a1-6)[Man(a1-2)Man(a1-2)Man(a1-3)]Man(b1-4)GlcNAc(b1-4)GlcNAc
# In short: as §1
# Man(a1-3)[Man(a1-6)]Man = target: Man(a1-3)[Man(a1-6)]Man
# In short: as §1
# [26] = target: Man(a1-3)[Man(a1-6)]Man(a1-6)[Man(a1-2)Man(a1-3)]Man(b1-4)GlcNAc(b1-4)GlcNAc
# In short: as §1
# [27] = target: Man(a1-3)[Man(a1-6)]Man(a1-6)[Man(a1-3)]Man
# In short: as §1
# [28] = target: Man(a1-3)[Man(a1-6)]Man(a1-6)[Man(a1-3)]Man(b1-4)GlcNAc(b1-4)GlcNAc
# In short: as §1
# [29] = target: Man(a1-3)[Man(a1-6)]Man(b1-4)GlcNAc(b1-4)GlcNAc
# In short: as §1
# [30] = target: Man(a1-3)[Man(a1-6)]Man(b1-4)GlcNAc(b1-4)[Fuc(a1-6)]GlcNAc
# In short: as §1
# Man(a1-6)Man = target: Man(a1-6)Man
# In short: as §1
# Man(b1-4)GlcNAc = target: Man(b1-4)GlcNAc
# In short: as §1
# MurNAc(b1-4)GlcNAc = target: MurNAc(b1-4)GlcNAc
# In short: as §1
binder,measurement,setting,value
B1,glycan array binding signal (z-score),[1],-0.218
same,glycan array binding signal (z-score),[2],-0.22
same,glycan array binding signal (z-score),[3],-0.224
same,glycan array binding signal (z-score),[4],-0.216
same,glycan array binding signal (z-score),[5],-0.222
same,glycan array binding signal (z-score),[6],-0.22
same,glycan array binding signal (z-score),GlcNAc(b1-3)GalNAc,-0.286
same,glycan array binding signal (z-score),GlcNAc(b1-3)Man,-0.301
same,glycan array binding signal (z-score),[7],-0.294
same,glycan array binding signal (z-score),[8],-0.053
same,glycan array binding signal (z-score),[9],-0.021
same,glycan array binding signal (z-score),[10],-0.297
same,glycan array binding signal (z-score),GlcNAc(b1-4)GlcNAc,-0.304
same,glycan array binding signal (z-score),[11],-0.302
same,glycan array binding signal (z-score),[12],-0.302
same,glycan array binding signal (z-score),[13],-0.303
same,glycan array binding signal (z-score),[14],-0.301
same,glycan array binding signal (z-score),[15],-0.299
same,glycan array binding signal (z-score),GlcNAc(b1-6)GalNAc,-0.237
same,glycan array binding signal (z-score),GlcNAc3Prop(b1-4)GlcNAc,-0.367
same,glycan array binding signal (z-score),[16],-0.273
same,glycan array binding signal (z-score),Kdn(a2-3)Gal(b1-3)GalNAc,-0.289
same,glycan array binding signal (z-score),Kdn(a2-3)Gal(b1-3)GlcNAc,-0.296
same,glycan array binding signal (z-score),Kdn(a2-3)Gal(b1-4)Glc,-0.301
same,glycan array binding signal (z-score),Kdn(a2-3)Gal(b1-4)GlcNAc,-0.296
same,glycan array binding signal (z-score),[17],-0.278
same,glycan array binding signal (z-score),Kdn(a2-6)Gal(b1-4)GlcNAc,-0.285
same,glycan array binding signal (z-score),[18],-0.306
same,glycan array binding signal (z-score),[19],-0.293
same,glycan array binding signal (z-score),Man(a1-2)Man(a1-3)Man,-0.309
same,glycan array binding signal (z-score),[20],-0.299
same,glycan array binding signal (z-score),[21],-0.314
same,glycan array binding signal (z-score),[22],-0.173
same,glycan array binding signal (z-score),[23],-0.308
same,glycan array binding signal (z-score),[24],-0.296
same,glycan array binding signal (z-score),[25],-0.302
same,glycan array binding signal (z-score),Man(a1-3)[Man(a1-6)]Man,-0.306
same,glycan array binding signal (z-score),[26],0.133
same,glycan array binding signal (z-score),[27],-0.296
same,glycan array binding signal (z-score),[28],-0.285
same,glycan array binding signal (z-score),[29],0.297
same,glycan array binding signal (z-score),[30],-0.218
same,glycan array binding signal (z-score),Man(a1-6)Man,-0.294
same,glycan array binding signal (z-score),Man(b1-4)GlcNAc,-0.298
same,glycan array binding signal (z-score),MurNAc(b1-4)GlcNAc,-0.214
